Results published in PubChem BioAssay AID1345083 (National Center for Advancing Translational Sciences (NCATS), 2018).
The whole screen tested about 94,000 compounds, of which about 6,200 (6.6%) were called active. Inconclusive results, whose numbers are uncertain, are shown with a selection of clear calls. Calls follow the shape of the dose curve; as a rule, active = well fitted inhibition curve with a large enough effect; inconclusive = small, poorly fitted or top-dose-only effect; inactive = flat fitted curve, though single readings scatter. Where the call is inconclusive, the potency comes from a doubtful curve fit.

Test: Cytotoxic Profiling in HEK 293 Cell Line of Diverse Libraries Using Quantitative High-Throughput Screening; also: nearly all actives have a fitted effect of over 60% in size
Conditions: HEK 293 viability, ATP luminescence (CellTiter-Glo), 48-72 h; series mostly up to 115 µM
How it was run: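 CellTiter-Glo luminescence (cellular ATP) was read after 48 or 72 hr of compound exposure at 37 degree Celsius. Cells were HEK 293 plated at 250 cells/well.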
Potency is read from the fitted curve at half-maximal effect; tags tell the direction and shape of the fitted curve.

Row | SMILES | Potency
1 | Cc1ccc(C(=O)N2CCCN(c3cc(-c4ccc(Cl)cc4)[nH]n3)CC2)s1 | inconclusive: 50.1 µM [inhibitor, partial curve, poor fit]
2 | Cc1ccc(-c2ccc3nnc(CNC(=O)c4cc(F)ccc4Cl)n3n2)cc1 | active: 31.6 µM
3 | O=S(=O)(c1cc(F)cc(F)c1)N1CCCC(Cn2c(C3CC3)nc3cccnc32)C1 (stereo not drawn) | inconclusive: 56.2 µM [inhibitor, partial curve, poor fit]
4 | CCN1CCN(C(=O)c2cn3cc(-c4ccc(C)cc4)sc3n2)CC1 | inconclusive: 79.4 µM [inhibitor, partial curve, poor fit]
5 | CC(C)NC(=O)c1ccccc1OCC1CCCN(CC2=Cc3ccccc3OC2)C1 (stereo not drawn) | active: 35.5 µM
6 | O=C(NCC12CCC=C1N(Cc1ccccc1)C(=O)CC2)c1cccnc1 (stereo not drawn) | inactive
7 | O=C1NCCC[C@@H]1NC(=O)[C@H]1CN(C(=O)c2cccc(F)c2)CCN1S(=O)(=O)c1ccc(F)cc1 | inactive
8 | COc1ccc(-c2noc(CN3CCCCC3c3cccc(F)c3)n2)c(OC)c1OC (stereo not drawn) | inconclusive: 50.1 µM [inhibitor, partial curve, poor fit]
9 | COCCC(=O)N1Cc2ccccc2OC2(CCN(C(C)C)CC2)C1 | inactive
10 | O=C(NCc1ccccc1F)C1CCN(Cc2ccccc2-c2cccnc2)CC1 | inconclusive: 89.1 µM [inhibitor, single point]
11 | COc1ccc(Nc2ccnc(N3CCC(C(=O)NCc4ccccc4OC)CC3)n2)cc1 | active: 28.2 µM
12 | Cc1ccc(-c2cn3c(n2)CO[C@@H](CNCc2ccc(Cl)cc2)C3)cc1 | active: 56.2 µM
13 | CC(C)COC(=O)N1C[C@H](C(N)=O)[C@H]2c3ccccc3N(CC3CC3)C(=O)[C@]21C | inconclusive: 89.1 µM [inhibitor, single point]
14 | Cc1ccc(N2Cc3c(ncnc3N3CCOCC3)N(C)CC2=O)cc1 | inactive
15 | CCCCNC(=O)Cc1csc2nc(C)c(-c3cc(C)n(-c4ccc(C)cc4)n3)c(=O)n12 | inconclusive: 63.1 µM [inhibitor, partial curve, poor fit]
16 | COc1ccc(F)cc1-c1ccc(CN2CCCCC2C(=O)NCc2cccs2)cc1 (stereo not drawn) | inconclusive: 31.6 µM [inhibitor, full curve, poor fit]
17 | O=C(NCc1ccc(F)cc1)c1ccc2nc(-c3ccncc3)oc2c1 | inconclusive: 28.2 µM [inhibitor, full curve, poor fit]
18 | CCN(C1CCOCC1)C1CN(C(=O)c2cccnc2)C1 | inactive
19 | O=C(c1ccccc1C(F)(F)F)N1CCC2(C1)C(=O)Nc1ccccc12 (stereo not drawn) | inactive
20 | COc1ccc2cc1Nc1ccc(cc1)C[C@H](NCc1ccc(O)cc1)C(=O)N(C)[C@H](C(=O)NCCOc1ccccc1)C2 | inconclusive: 70.8 µM [inhibitor, partial curve, poor fit]
21 | COc1ccc(-n2nc3n(c2=O)CCN(Cc2ccsc2)C3)cc1 | inconclusive: 39.8 µM [inhibitor, full curve]

Row | SMILES | Potency
22 | O=C(O)c1ccc(CN2CC[C@H](c3nnc(-c4ccc(Cl)cc4)o3)C2)cc1 | inconclusive: 126 µM [inhibitor, single point]
23 | COc1ccccc1CNC[C@H]1O[C@H](Cc2cc(CN(C)Cc3ccccc3)on2)CC[C@@H]1O | inconclusive: 79.4 µM [inhibitor, partial curve, poor fit]
24 | COc1ccc(C)cc1NC(=O)N1CCCC(Cn2c(C3CC3)nc3cccnc32)C1 (stereo not drawn) | inconclusive: 50.1 µM [inhibitor, partial curve, poor fit]
25 | Cc1ccc(-c2nnc(C3CN(C(=O)COc4cccc(C)c4)CC34CCOCC4)o2)cc1 (stereo not drawn) | inconclusive: 79.4 µM [inhibitor, partial curve]
26 | CCn1nccc1C(=O)N1CCC2(CC1)CC(N(C(=O)c1ccccc1)C1CC1)CCO2 (stereo not drawn) | inconclusive: 89.1 µM [inhibitor, single point]
27 | O=C(c1cccc(OC2CN(Cc3cccnc3)C2)c1)N1CCCC1 | inactive
28 | Cc1cc(C)cc(NC(=O)Cn2c(-c3cccc(Cl)c3)nc(C)c(CCO)c2=O)c1 | inconclusive: 31.6 µM [inhibitor, full curve]
29 | CCOc1cccc(CNC(=O)CCC2CCN(S(=O)(=O)c3ccccc3)CC2)c1 | inconclusive: 28.2 µM [inhibitor, full curve, poor fit]
30 | Cc1ccc(CNC(=O)N2CCCN(C(=O)C3CC3)C(c3ccccc3)CC(=O)NCC2)cc1 (stereo not drawn) | inactive
31 | COc1cc(OC)c(NC(=O)CN2C(=O)NC(c3ccc(C)cc3)C3=C2COC3=O)cc1Cl (stereo not drawn) | inconclusive: 20 µM [inhibitor, full curve, poor fit]
32 | O=C(CO)N1CCCC(N2CCN(c3cccc(C(F)(F)F)c3)CC2)C1 (stereo not drawn) | inconclusive: 50.1 µM [inhibitor, partial curve, poor fit]
33 | CC(C)(C)CC(=O)Nc1ccc([C@@H](O)[C@H]2COCC(=O)N2Cc2ccccc2F)cc1 | inconclusive: 100 µM [inhibitor, partial curve, poor fit]
34 | COc1ccc(C2(C(=O)N3CCC(Cc4nc(-c5ccc(F)cc5)no4)CC3)CC2)cc1 | inconclusive: 25.1 µM [inhibitor, partial curve, poor fit]
35 | Cc1ccc(Cn2cc(-c3ccncc3)cc2C(=O)N2CCCCCC2)cc1 | inconclusive: 39.8 µM [inhibitor, full curve, poor fit]
36 | CNC(=O)c1cc(C2CC2)nc2onc(C3CCCN(C(=O)c4ccc(C)cc4)C3)c12 (stereo not drawn) | inconclusive: 39.8 µM [inhibitor, partial curve]
37 | CC(=O)NC1(C)CCN(Cc2cnc(-c3cccc(N4CCOCC4)c3)s2)CC1 | inconclusive: 100 µM [inhibitor, partial curve, poor fit]
38 | COc1ccc(CCc2nc3nccc(-c4ccc(F)cc4OC)n3n2)cc1 | inconclusive: 79.4 µM [inhibitor, single point]
39 | c1ccc2c(CN3CCC[C@H]3c3nc(-c4ccnc(N5CCOCC5)c4)no3)c[nH]c2c1 | active: 89.1 µM
40 | Cc1noc2c(NC3CCN(C)CC3)cc(-c3ccccn3)nc12 | active: 112 µM
41 | O=C(C1CCOCC1)N1CCC2(CC1)NCCc1c2[nH]c2ccccc12 | inactive
42 | COc1ccccc1-c1ccnc(-c2nnc(C)n2C2CCCCC2)c1 | inconclusive: 44.7 µM [inhibitor, partial curve, poor fit]

Row | SMILES | Potency
43 | O=C(NCCc1ccccn1)c1cnc2c(c1)N(C(=O)CCc1ccccc1)CCC2 | inconclusive: 100 µM [inhibitor, partial curve, poor fit]
44 | Cc1nn(Cc2ccccc2)c(C)c1[C@@H]1C=C[C@@H](NC(=O)c2cccs2)C1 | inconclusive: 79.4 µM [inhibitor, partial curve, poor fit]
45 | Cc1ccc(CN2C[C@@H]3C(=O)N(Cc4ccc5c(c4)OCO5)C(=O)[C@@H]3C2)c(C)c1 | inconclusive: 50.1 µM [inhibitor, partial curve, poor fit]
46 | COc1ccccc1-n1nc(CC(N)=O)nc1C1CCCCn2nnnc21 (stereo not drawn) | inconclusive: 89.1 µM [inhibitor, single point]
47 | COCCNC(=O)C1CCCN(Cc2cccc(-c3ccsc3)c2)C1 (stereo not drawn) | inactive
48 | c1ccc(-c2nc3c(c(NCC4OCCc5ccccc54)n2)CCNC3)nc1 (stereo not drawn) | inconclusive: 56.2 µM [inhibitor, partial curve, poor fit]
49 | O=C(NCC1CCCCC1)C1CCc2nnc(-c3cccc(C(F)(F)F)c3)n21 (stereo not drawn) | inactive
50 | Cc1cccc(OCCc2noc(C3CCN(C(=O)NCc4ccccc4)C3)n2)c1 (stereo not drawn) | inconclusive: 44.7 µM [inhibitor, partial curve, poor fit]
51 | O=C(NC1CCN(c2ccc3nnc(-c4ccccc4)n3n2)CC1)c1ccc(Cl)nc1 | inactive
52 | COc1cc(NC(=O)Cn2c(N(C)Cc3ccccc3)nc(C)cc2=O)cc(OC)c1OC | inconclusive: 12.6 µM [inhibitor, full curve, poor fit]
53 | O=C1C[C@@H]2CCN(C(=O)NC3CCCCC3)C[C@@H]2CCN1Cc1ccc2c(c1)OCO2 | inconclusive: 70.8 µM [inhibitor, full curve, poor fit]
54 | CCn1nccc1C(=O)NCCn1ccn2nc(-c3ccc(C)c(C)c3)cc2c1=O | active: 25.1 µM
55 | O=C1CN(Cc2cccc(-c3ccsc3)c2)CCN1c1cc(Cl)ncn1 | active: 79.4 µM
56 | COc1ccc(S(=O)(=O)N2CCc3c(C(=O)Nc4cccc(C)c4)cccc32)cc1 | active: 17.8 µM
57 | c1ccc(Nc2ncc(-c3ccccc3)c3c2OCC3)cc1 | inconclusive: 35.5 µM [inhibitor, partial curve, poor fit]
58 | COc1ccc(OCC2CN(CC(C)C)[S+](=O)([O-])c3cnccc3O2)cc1 (stereo not drawn) | inconclusive: 35.5 µM [inhibitor, partial curve, poor fit]
59 | CO[C@H]1CN(C2CCN(S(=O)(=O)N(C)C)CC2)[C@H]1c1ccncc1 | inactive
60 | O=C(Nc1ccccc1)[C@@H]1C[C@@H](c2ccc(F)cc2)N([S+](=O)([O-])c2cccnc2)C1 | inconclusive: 112 µM [inhibitor, partial curve, poor fit]
61 | CC1(C(=O)NCc2cnccn2)CCCc2cnc(NCc3ccccc3)nc21 (stereo not drawn) | inactive
62 | Cc1cccc(CN2CCc3ncc(C(=O)NCCN4CCNC4=O)n3CC2)c1 | inconclusive: 126 µM [inhibitor, single point]
63 | Cc1ccc(-c2nc(C3CC(=O)N(c4ccc(Cl)cc4)C3)no2)cc1C (stereo not drawn) | inactive
